Values marked as one replicate rest on one cluster of the flow cell; about a third of the high ones do not repeat.

In the series the test system is ATP. In words: switch fluorescence ratio, 500 uM ATP over buffer (Cy3 cluster intensity, sum of 5 cycles each) (fold (ratio)); higher = stronger signal-on switching upon ATP binding; sequences stand for … in TCGTCGGCAGCGTCAGATGTGTATAAGAGACAGTTTTTTTTTTTTTTTTTTTTTTTTT…TC. The settings on record: aptamer strand: ATP DNA aptamer (quencher-CACCTGGGGGAGTATTGCGGAGGAAGG + anchor), 100 nM annealed; ATP concentration: 500 uM; one replicate. An outline of the steps: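 Exposure to 500 uM ATP lasted 15 min at 22 °C before imaging, and a selection-buffer image was taken beforehand, for Cy3-labelled switching-strand clusters on a modified Illumina MiSeq flow-cell annealed to 100 nM quencher-labelled ATP aptamer. Five buffer/ATP cycles were run with NaOH stripping and re-annealing between them. The fluorescence ratio per cluster is summed target-cycle over summed buffer-cycle Cy3 intensity, averaged per switch-domain sequence. Clusters outside 100-1000 RFU were excluded.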
In the case of AACCGAGGGC, the switch fluorescence ratio was determined as 1.03.

Take GGCGGGAATG: the switch fluorescence ratio was 1.01.

Turning to TCCCGGTTGA, the switch fluorescence ratio came to 1.05.

With ACGTGTTCCT, the switch fluorescence ratio is 1.01.

CGGACTCGCT: the switch fluorescence ratio was 1.01.

As to GTTACTTAAC, the switch fluorescence ratio worked out at 1.1.

Consider GATGAAAGCA, for which the switch fluorescence ratio is 1.04.

Take GTCCGTAATT: the switch fluorescence ratio was determined as 2.21.

On to AGGGGAGAAA, for which the switch fluorescence ratio was 0.995.

For CTGGCCTAAG, the switch fluorescence ratio stood at 1.01.

As to TTATTGCACC, the switch fluorescence ratio is 1.04.

For the sequence AACGCCAGT, the switch fluorescence ratio stood at 1.34.

For GTTGCAGC, the switch fluorescence ratio came to 1.12.

On to GAATGTACG, for which the switch fluorescence ratio is 0.984.

Take GTGGGTGTAT: the switch fluorescence ratio came out at 0.988.

As to CATAAATATT, the switch fluorescence ratio was found to be 1.01.

Consider GCTGGTGGCC, for which the switch fluorescence ratio is 1.01.

With CTCATAAATA, the switch fluorescence ratio was 1.03.

For ATCGCTGCCC, the switch fluorescence ratio is 1.08.

As for TCCGGACCTG, the switch fluorescence ratio turned out to be 1.09.

As for TCAGCGCAGG, the switch fluorescence ratio was 1.06.

With AATCAAGAAC, the switch fluorescence ratio amounted to 1.08.

With TGCTCCGAGG, the switch fluorescence ratio was found to be 1.37.

On to AAGAATACTT, for which the switch fluorescence ratio stood at 1.29.

Take CATGTCTG: the switch fluorescence ratio came out at 0.992.

In the case of GCTTTTCAGT, the switch fluorescence ratio was 0.983.

Consider GGTTTTGTAC, for which the switch fluorescence ratio came out at 0.999.

As to CGACCCACCA, the switch fluorescence ratio stood at 1.37.

Regarding TTGAATAGGG, the switch fluorescence ratio was found to be 0.996.

For AGACAGCCAC, the switch fluorescence ratio turned out to be 1.19.

CGCGACGGCC: the switch fluorescence ratio amounted to 1.02.

As for CAAAAATGTA, the switch fluorescence ratio amounted to 0.996.

Turning to TCCGTTAAA, the switch fluorescence ratio came out at 1.17.

For the sequence AGATATTTTA, the switch fluorescence ratio worked out at 1.

With CGGAACAGTA, the switch fluorescence ratio was 1.05.

In the case of GATCGTAGGT, the switch fluorescence ratio was 0.99.

Regarding TTATGGCTGC, the switch fluorescence ratio was 1.04.

ACGTGATGCA: the switch fluorescence ratio was determined as 1.02.

For the sequence TTCAGAACGT, the switch fluorescence ratio worked out at 1.01.

On to CGCAGTATGT, for which the switch fluorescence ratio is 1.12.

With TTATAGTGG, the switch fluorescence ratio worked out at 1.03.

For the sequence TATAAGCGTC, the switch fluorescence ratio was 1.01.

Regarding TTTAAGAGTT, the switch fluorescence ratio worked out at 1.04.

Turning to TACTGTTGTG, the switch fluorescence ratio was 1.04.

For the sequence GTAAGGAGTG, the switch fluorescence ratio worked out at 0.989.

As for TAGAATATTA, the switch fluorescence ratio came to 1.02.

Consider TGTTAGTGCA, for which the switch fluorescence ratio is 0.972.

As to GGTTCGACCG, the switch fluorescence ratio turned out to be 1.02.

As for AGCAAGAATA, the switch fluorescence ratio was 1.09.

For the sequence TTAAGTCGAT, the switch fluorescence ratio was 0.985.

As for TGGGGATTCG, the switch fluorescence ratio is 0.966.

Consider CTAAGCACCA, for which the switch fluorescence ratio is 1.22.

As for ACGAGGTAC, the switch fluorescence ratio was determined as 1.19.

On to CGTAAGAGCG, for which the switch fluorescence ratio is 0.99.

For AGGCTATAGA, the switch fluorescence ratio came out at 1.05.

TTTCGATGGA: the switch fluorescence ratio came to 0.982.

On to AAAGCATCTG, for which the switch fluorescence ratio was determined as 0.995.

As for AAGTACCG, the switch fluorescence ratio came out at 1.11.

In the case of GGTGGAATTG, the switch fluorescence ratio came out at 1.08.

As to GATCACTTC, the switch fluorescence ratio is 1.02.

On to TGTCTTTCTT, for which the switch fluorescence ratio was determined as 1.02.

Regarding TAGATCGACA, the switch fluorescence ratio is 1.03.

With TTCGGCAAGC, the switch fluorescence ratio turned out to be 1.3.

With AAGAAAAAAT, the switch fluorescence ratio was 0.983.

Turning to AAAGTAT, the switch fluorescence ratio was found to be 1.

For ACCCGTCCGG, the switch fluorescence ratio worked out at 1.02.

In the case of GGGCTAGACT, the switch fluorescence ratio is 1.05.

Turning to TCGGTGACCC, the switch fluorescence ratio is 0.974.

Regarding TGATATAATC, the switch fluorescence ratio is 0.979.

For GATGACAACG, the switch fluorescence ratio is 0.975.

As to TGTAGTACT, the switch fluorescence ratio was found to be 1.03.

With TGTGAACCAA, the switch fluorescence ratio is 1.01.

As for CAGTCATAGG, the switch fluorescence ratio is 1.01.

Turning to TTATGCCAGC, the switch fluorescence ratio was found to be 1.

Take GGTGGTAC: the switch fluorescence ratio came to 1.

Take TCCGATTGTA: the switch fluorescence ratio amounted to 1.07.

Turning to GTTAAATTGC, the switch fluorescence ratio came to 0.988.

As for AGGGATCTGT, the switch fluorescence ratio worked out at 1.01.

With GAAATGCGAA, the switch fluorescence ratio worked out at 1.06.

Turning to CCTAGTTGTT, the switch fluorescence ratio turned out to be 1.04.

As to GGGCTCTTTA, the switch fluorescence ratio came out at 1.02.

For the sequence CGCTGCTTAT, the switch fluorescence ratio came out at 1.21.

TTCCTGGTGT: the switch fluorescence ratio was determined as 1.66.

With ACTGAATGTT, the switch fluorescence ratio is 1.04.

On to CCATCCTAAG, for which the switch fluorescence ratio was determined as 1.02.

On to ACAGGTGTGG, for which the switch fluorescence ratio stood at 1.14.

Consider TAGATAGGGC, for which the switch fluorescence ratio came out at 1.02.

As to ACGTGAGAGT, the switch fluorescence ratio amounted to 1.08.

As to AGGGATGAAT, the switch fluorescence ratio was found to be 0.966.

As to CACTGTGGAG, the switch fluorescence ratio came to 1.03.

For the sequence CAGGAGAGGT, the switch fluorescence ratio is 1.05.

Consider ACGTTGGTAG, for which the switch fluorescence ratio was found to be 0.982.

Consider AATGCCCCTG, for which the switch fluorescence ratio was determined as 1.05.

As to CGTCACTTTT, the switch fluorescence ratio stood at 0.987.

Consider TTCGGTCGTT, for which the switch fluorescence ratio was 0.983.

Consider CCTCGATCG, for which the switch fluorescence ratio was 1.04.

Take CGCGGGCGTG: the switch fluorescence ratio stood at 1.

Turning to AAAGCTTGTG, the switch fluorescence ratio stood at 1.02.

Regarding TGGGTTCGTT, the switch fluorescence ratio came to 0.998.

For CTGGGGGTC, the switch fluorescence ratio stood at 0.92.

ATAGGATCAA: the switch fluorescence ratio is 0.994.

With GTTTGAATGG, the switch fluorescence ratio is 1.01.

TCAAATTGGA: the switch fluorescence ratio was determined as 0.984.

In the case of TCGAACTTTT, the switch fluorescence ratio was 1.02.

TGCAGTGGAC: the switch fluorescence ratio was 1.18.

As to TCATAGAGAA, the switch fluorescence ratio is 1.03.

As for GCGCACGGTC, the switch fluorescence ratio turned out to be 1.1.

As to ATGGGGGTGA, the switch fluorescence ratio is 1.04.

Turning to GTGCAGTCTG, the switch fluorescence ratio came to 1.01.

As for GCCGGGTGGA, the switch fluorescence ratio was 0.979.

In the case of ACTAGGAGTC, the switch fluorescence ratio was 0.943.

Consider TTAATCCGGT, for which the switch fluorescence ratio came out at 0.955.

Consider CCAGGTATAG, for which the switch fluorescence ratio worked out at 1.16.

On to AAGTCGGGTC, for which the switch fluorescence ratio was found to be 0.948.

For TTGTCATGTT, the switch fluorescence ratio turned out to be 0.977.

Regarding AGGCTATATC, the switch fluorescence ratio was 1.11.

For the sequence TTCGGGCTAT, the switch fluorescence ratio turned out to be 1.06.

For CTATTGTCAG, the switch fluorescence ratio was 0.983.

Regarding GTTGATAATT, the switch fluorescence ratio came to 0.976.

Consider CCCTAGATAG, for which the switch fluorescence ratio was 1.28.

With AAATCCAAG, the switch fluorescence ratio stood at 1.01.

The values above are taken from the supplement of paper PMC10126150.
